From PubChem BioAssay AID1452 (National Center for Advancing Translational Sciences (NCATS), 2008)
In all, about 150,000 compounds went through this assay and about 190 (0.13%) were called active. This list was built around the results that the source calls inconclusive (neither active nor inactive); the mix of calls is not that of the screen. Calls follow the shape of the dose curve; as a rule, active = well fitted inhibition curve with a large enough effect; inconclusive = small, poorly fitted or top-dose-only effect; inactive = flat fitted curve, though single readings scatter. Potencies of inconclusive entries are doubtful fits and often do not repeat.

molecular target: Polyunsaturated fatty acid lipoxygenase ALOX12 (Homo sapiens) (UniProt P18054); experiment: qHTS Assay for Inhibitors of 12-hLO (12-human lipoxygenase); settings: purified 12-hLO, xylenol orange hydroperoxide absorbance; series mostly up to 57.1 µM; activity change, negative = inhibition: at the top concentration; also: nearly all actives have a fitted effect of over 55% in size
Method in brief: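 Purified human 12hLO (150 nM final) was preincubated with compounds for 15 min at room temperature in 25 mM Hepes pH 7.0, 0.01% Triton X-100, then reacted with 40 uM arachidonic acid for 30 min. Hydroperoxide was detected with ferrous iron/xylenol orange.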
% is scaled to controls: 0 for no effect and ±100 for the full control effect; potency is read from the fitted curve at half-maximal effect; tags tell the direction and shape of the fitted curve.

UniProt P18054, sequence (P18054 whole entry, looked up): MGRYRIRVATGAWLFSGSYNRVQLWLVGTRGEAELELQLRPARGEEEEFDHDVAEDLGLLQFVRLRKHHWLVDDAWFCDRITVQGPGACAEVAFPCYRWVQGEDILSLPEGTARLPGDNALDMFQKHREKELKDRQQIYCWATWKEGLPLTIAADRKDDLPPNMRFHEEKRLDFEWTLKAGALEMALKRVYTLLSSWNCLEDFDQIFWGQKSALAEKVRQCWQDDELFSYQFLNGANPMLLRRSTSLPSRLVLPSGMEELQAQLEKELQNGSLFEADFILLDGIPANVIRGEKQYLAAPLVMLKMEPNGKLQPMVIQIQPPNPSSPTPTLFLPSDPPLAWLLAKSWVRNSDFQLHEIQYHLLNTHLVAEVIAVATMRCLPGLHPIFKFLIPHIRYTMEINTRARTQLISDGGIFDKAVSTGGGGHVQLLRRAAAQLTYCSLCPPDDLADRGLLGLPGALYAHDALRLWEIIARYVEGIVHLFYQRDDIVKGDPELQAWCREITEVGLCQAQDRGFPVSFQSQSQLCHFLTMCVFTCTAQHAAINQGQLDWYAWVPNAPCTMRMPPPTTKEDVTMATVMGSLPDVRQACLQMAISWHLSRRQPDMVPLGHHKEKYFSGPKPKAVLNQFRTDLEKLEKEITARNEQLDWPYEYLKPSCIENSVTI

| SMILES | Potency | activity change, negative = inhibition |
| --- | --- | --- |
| S=C(Nc1ccc(Cl)c(Cl)c1)NC1CCCCC1 | inconclusive: 22.4 µM [inhibitor, partial curve] | – |
| CCCCNC(=S)NC(=O)c1ccc([N+](=O)[O-])cc1 | inconclusive: 17.8 µM [inhibitor, partial curve] | – |
| CCC(CC)=NNc1cccc([N+](=O)[O-])c1 | inconclusive: 17.8 µM [inhibitor, partial curve] | – |
| O=C(Nc1nc(-c2ccccc2)cs1)c1ccc2c(=O)n3c(nc2c1)CCCCC3 | – | inactive: -2.21% |
| CC(NC(=S)Nc1ccc(S(=O)(=O)N2CCOCC2)cc1)C1CC2CCC1C2 (stereo not given) | inconclusive: 25.1 µM [inhibitor, single point] | – |
| CCOc1ccc(/C=N/N(C)c2ccccc2)cc1OC | inconclusive: 12.6 µM [inhibitor, partial curve] | – |
| CCn1c(=S)sc2c(=O)n(-c3ccccc3)c(SC)nc21 | inconclusive: 39.8 µM [inhibitor, single point] | – |
| O=C(O)CNCCc1ccccc1 | – | inactive: 2.04% [at 11.4 µM] |
| O=C(Cc1ccccc1)NC(=S)Nc1cccc(C(F)(F)F)c1 | inconclusive: 25.1 µM [inhibitor, single point] | – |
| COc1ccc2c(c1)C(C)=CC(C)(C)N2C(=O)Nc1ccccc1 | inconclusive: 22.4 µM [inhibitor, single point] | – |
| O=c1/c(=C\c2ccc(O)cc2)sc2n1C(c1ccccc1)C(c1ccccc1)=NN=2 (stereo not given) | inconclusive: 25.1 µM [inhibitor, partial curve] | – |
| COc1ccc(C=O)cc1COc1ccc(Cl)cc1[N+](=O)[O-] | – | inactive: 2.03% |
| Cc1cc2cc(CNC(=S)Nc3ccc(OC(F)F)cc3)ccc2n1C | inconclusive: 25.1 µM [inhibitor, partial curve] | – |
| Cc1ccc(C)c(/C=N/NC(=S)NCCc2ccccc2)c1 | inconclusive: 22.4 µM [inhibitor, single point] | – |
| N#CC1=C2SCN(Cc3ccco3)CN2C(=O)CC1c1cccc2ccccc12 (stereo not given) | inconclusive: 14.1 µM [inhibitor, partial curve] | – |
| Cc1cccc(N2CCN(C(=O)c3cc(C)oc3C)CC2C)c1 (stereo not given) | – | inactive: -2.22% |
| C/C(=N\Nc1ccc([N+](=O)[O-])cc1)c1ccc(N)cc1 | inconclusive: 22.4 µM [inhibitor, single point] | – |
| CC(=O)N(c1ccc2oc(=O)sc2c1)S(=O)(=O)c1ccccc1 | inconclusive: 17.8 µM [inhibitor, partial curve] | – |
| COc1ccc(/C=N/NC(=O)c2nn(-c3ccccc3)c(=O)c3c(N)scc23)cc1 | inconclusive: 20 µM [inhibitor, single point] | – |
| NC1=NC(c2cccc(O)c2)n2c(nc3ccccc32)N1 (stereo not given) | – | inactive: 1.57% |
| O=C(CSCc1cccc(Cl)c1)NCc1ccc2c(c1)OCO2 | – | inactive: -9.22% |
| Cc1c(Cl)cccc1NC(=S)NCCC(c1ccccc1)c1ccccc1 | active: 7.94 µM | – |
| CCN1CCN(Cc2c(C)[nH]c3ccc(C(=O)OC)cc3c2=O)CC1 | inconclusive: 39.8 µM [inhibitor, single point] | – |

| SMILES | Potency | activity change, negative = inhibition |
| --- | --- | --- |
| NC(=O)c1c(NC(=O)CSc2nnc(-c3ccco3)n2-c2ccccc2)sc2c1CCC2 | – | inactive: -25.4% |
| CC1(C)NC(=O)N(c2ccc([N+](=O)[O-])c(C(F)(F)F)c2)C1=O | inconclusive: 6.31 µM [inhibitor, single point] | – |
| O=C(CC1C(=O)N(c2ccc(Cl)cc2)C(=S)N1CCc1ccncc1)Nc1ccc(F)cc1 (stereo not given) | inconclusive: 2.51 µM [inhibitor, full curve] | – |
| Cc1ccnc(-n2sc3ccccc3c2=O)n1 | active: 12.6 µM | – |
| O=C1/C(=C/c2ccncc2)SC(=S)N1C1CCS(=O)(=O)C1 (stereo not given) | – | inactive: -5.6% |
| O=C(COC(=O)C1CC2C=CC1C2)Nc1cccc(S(=O)(=O)N2CCCCC2)c1 (stereo not given) | – | inactive: 4.08% |
| Fc1ccc(N/N=C2/CC(c3ccccc3)Oc3ccccc32)c(F)c1 (stereo not given) | inconclusive: 25.1 µM [inhibitor, partial curve] | – |
| COc1cc(/C=C2/C(=O)NN(c3cccc(C)c3)C2=O)ccc1OC(=O)c1ccco1 | inconclusive: 39.8 µM [inhibitor, single point] | – |
| Cc1ccc(C)c2[nH]c(=O)c(C(c3nnnn3Cc3ccco3)N3CCc4ccccc4C3)cc12 (stereo not given) | inconclusive: 12.6 µM [inhibitor, partial curve] | – |
| CCOc1cc(/C=C2\C(=O)N(Cc3ccc(C)cc3)C(C)=C2C(=O)OC)ccc1O | inconclusive: 25.1 µM [inhibitor, single point] | – |
| Cc1cc(NS(=O)(=O)c2ccc(NC(=S)NC(=O)c3ccc(Cl)cc3Cl)cc2)no1 | inconclusive: 28.2 µM [inhibitor, single point] | – |
| CCOC(=O)CSC1=C(C#N)C(=O)NC2(CCCCC2)S1 | inconclusive: 39.8 µM [inhibitor, single point] | – |
| Cc1cc(C)n2c(=S)[nH]nc2n1 | inconclusive: 4.47 µM [inhibitor, full curve, poor fit] | – |
| CCNC(=S)NNC(=O)c1cc(-c2cc(C)ccc2C)nc2ccccc12 | inconclusive: 25.1 µM [inhibitor, partial curve] | – |
| CCOC(=O)c1c(-c2ccccc2)csc1NC(=O)CSc1ccccc1 | – | inactive: 0.975% |
| CCOc1ccc(N(CC(=O)OC)S(=O)(=O)c2ccc(OC)c(OC)c2)cc1 | – | inactive: 2.96% |
| Cc1ccccc1OCCCN1C(=O)C(=O)c2cccc(C)c21 | inconclusive: 31.6 µM [inhibitor, single point] | – |
| COC(=O)CSc1nnc(-c2cccc(NC(=O)c3ccc(C)cc3)c2)n1C | inconclusive: 7.08 µM [inhibitor, single point] | – |
| Cc1cccc(C)c1NC(=S)NC1CCCCC1 | inconclusive: 39.8 µM [inhibitor, single point] | – |
| Cc1cc(SCC(=O)N/N=C/c2ccc(O)c(O)c2O)c(C)cc1Br | inconclusive: 12.6 µM [inhibitor, partial curve] | – |
| COc1ccc(-c2cc(C(=O)N3CCOCC3)c3cc(C)ccc3n2)cc1 | – | inactive: -3.72% |
| CC(=O)c1cc2c(O)c(O)ccc2o1 | inconclusive: 0.316 µM [inhibitor, full curve] | – |
